Data: paper PMC5021370
No constants are given. Whether binding was seen depends on the method and setting. For some assays here: In cells and extracts the contact can be indirect. Some results given as binding are weak or reduced against the parent protein; the word gives no strength. Tags and fused reporters may be left off the sequences shown. Values belong to the binder of their own block, whether it stands above or below them.

Experiments:
[1] = molecular target: T1, GST-SPARC Cterm (aa 154–303) (UniProt P09486); assay: pull-down; 10 μg GST fusion protein on Glutathione sepharose 4B beads incubated with SKOV3 cell lysate for 2 hours at 4°C; GST lysis buffer (20 mM Tris-HCl pH 7.4, 50 mM NaCl, 1% NP-40, 10% Glycerol, 0.1% ß-mercaptoethanol); four washes; Western blot; only the target purified
T1 sequence: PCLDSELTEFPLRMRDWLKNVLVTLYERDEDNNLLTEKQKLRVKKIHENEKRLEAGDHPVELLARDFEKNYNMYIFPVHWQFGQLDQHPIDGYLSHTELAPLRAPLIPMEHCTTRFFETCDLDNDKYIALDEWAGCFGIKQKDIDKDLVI

GST-SPARC aa 154–256 = molecular target: T2, GST-SPARC aa 154–256 (UniProt P09486); assay: as above
T2 sequence: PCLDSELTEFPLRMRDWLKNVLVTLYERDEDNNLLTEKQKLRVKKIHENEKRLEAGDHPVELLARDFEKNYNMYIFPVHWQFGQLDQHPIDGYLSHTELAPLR

[2] = molecular target: T3, GST-SPARC aa 18–266 (full-length SPARC lacking the last 37 amino acids) (UniProt P09486); assay: as above
T3 sequence: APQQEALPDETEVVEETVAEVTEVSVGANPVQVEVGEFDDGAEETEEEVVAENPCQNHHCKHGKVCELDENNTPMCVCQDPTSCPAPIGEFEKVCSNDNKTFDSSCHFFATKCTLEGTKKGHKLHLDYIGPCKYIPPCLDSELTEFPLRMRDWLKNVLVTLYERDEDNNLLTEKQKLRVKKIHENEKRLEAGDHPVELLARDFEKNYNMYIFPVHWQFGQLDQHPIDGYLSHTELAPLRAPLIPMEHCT

GST-SPARC (aa 18–303) [3] = molecular target: T4, GST-SPARC (aa 18–303) (UniProt P09486); assay: as above
T4 sequence: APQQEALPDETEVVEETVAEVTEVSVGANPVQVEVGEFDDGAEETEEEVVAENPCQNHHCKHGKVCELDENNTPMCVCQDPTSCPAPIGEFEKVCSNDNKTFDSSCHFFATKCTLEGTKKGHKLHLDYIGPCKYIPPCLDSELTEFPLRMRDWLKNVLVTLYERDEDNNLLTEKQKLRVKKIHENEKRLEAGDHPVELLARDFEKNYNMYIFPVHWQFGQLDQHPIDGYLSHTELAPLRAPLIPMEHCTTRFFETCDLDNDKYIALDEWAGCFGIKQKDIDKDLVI

GST-SPARC (aa 18–303) [4] = molecular target: T4, GST-SPARC (aa 18–303); assay: pull-down; 2 μg of rTGFBI or 2 μg human plasma fibronectin incubated with 10 μg of GST fusion protein; pull-down with Glutathione sepharose 4B beads, four washes in GST lysis buffer; Western blot; both purified

binding [1]: binds | binding (GST-SPARC aa 154–256): no binding | binding [2]: no binding | binding (GST-SPARC (aa 18–303) [3]): binds
B1: transforming growth factor beta induced (TGFBI), endogenous in SKOV3 cells (protein, UniProt Q15582 24-683)
chain: GPAKSPYQLVLQHSRLRGRQHGPNVCAVQKVIGTNRKYFTNCKQWYQRKICGKSTVISYECCPGYEKVPGEKGCPAALPLSNLYETLGVVGSTTTQLYTDRTEKLRPEMEGPGSFTIFAPSNEAWASLPAEVLDSLVSNVNIELLNALRYHMVGRRVLTDELKHGMTLTSMYQNSNIQIHHYPNGIVTVNCARLLKADHHATNGVVHLIDKVISTITNNIQQIIEIEDTFETLRAAVAASGLNTMLEGNGQYTLLAPTNEAFEKIPSETLNRILGDPEALRDLLNNHILKSAMCAEAIVAGLSVETLEGTTLEVGCSGDMLTINGKAIISNKDILATNGVIHYIDELLIPDSAKTLFELAAESDVSTAIDLFRQAGLGNHLSGSERLTLLAPLNSVFKDGTPPIDAHTRNLLRNHIIKDQLASKYLYHGQTLETLGGKKLRVFVYRNSLCIENSCIAAHDKRGRYGTLFTMDRVLTPPMGTVMDVLKGDNRFSMLVAAIQSAGLTETLNREGVYTVFAPTNEAFRALPPRERSRLLGDAKELANILKYHIGDEILVSGGIGALVRLKSLQGDKLEVSLKNNVVSVNKEPVAEPDIMATNGVVHVITNVLQPPANRPQERGDELADSALEIFKQASAFSRASQRSVRLAPVYQKLLERMKH

binding (GST-SPARC (aa 18–303) [4]): binds
B2: recombinant TGFBI (rTGFBI) (protein, UniProt Q15582 24-683)
chain: B1 chain
